BigSolDB 2.1

Settings: 298.15 K

COc1ccc2cc([C@H](C)C(=O)O)ccc2c1
solubility (mole fraction) (in acetone): 0.047
solubility (mole fraction) (in acetonitrile): 0.00598
solubility (mole fraction) (in chlorobenzene): 0.00636
solubility (mole fraction) (in chloroform): 0.0255
solubility (mole fraction) (in cyclohexane): 7.5e-05
solubility (mole fraction) (in ethanol): 0.0139
solubility (mole fraction) (in ethyl acetate): 0.0244
solubility (mole fraction) (in ethylene glycol): 0.00284
solubility (mole fraction) (in isopropanol): 0.0126
solubility (mole fraction) (in methanol): 0.0122
solubility (mole fraction) (in n-heptane): 3.88e-05
solubility (mole fraction) (in n-hexane): 3.2e-05
solubility (mole fraction) (in n-pentane): 2.22e-05
solubility (mole fraction) (in n-propanol): 0.0133
solubility (mole fraction) (in tetrachloromethane): 0.00172
solubility (mole fraction) (in toluene): 0.00347
